# Laboratory results taken from PubChem BioAssay (Tox21).
# The shares of active, inactive and inconclusive entries below differ from those in the screen. No potency is given beside an inconclusive call; the fits are too rough. Activity calls are given as the source filed them. Unless noted, the call rests on the fitted dose curve; in most records, active means well fitted cell-killing curve with a large enough effect in the repeat runs; inconclusive means weak or mixed curves; inactive means flat fitted curve, though single readings scatter.
# Assay: qHTS assay to identify small molecule antagonists of the TGF-beta/Smad signaling pathway - cell viability counter screen (AID 1346824); further: nearly all actives have a fitted effect of over 50% in size
# Settings: SBE-bla HEK293T viability, CellTiter-Glo luminescence; series mostly up to 76.8 µM
# Outline: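 SBE-bla HEK 293T cells, incubated overnight, then compound plus 0.25 ng/mL TGF-beta1 (stock added) for 5 hr at 37 C. Viability was read in the same wells by CellTiter-Glo luminescence after 30 min at room temperature.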
# Potency means the concentration at half of the fitted maximal effect; tags describe the fitted curve by direction and shape or compound fluorescence and quenching.
row,SMILES,Potency
1,Cc1cccc(N(C)C(=S)Oc2ccc3ccccc3c2)c1,inconclusive [cytotoxic]
2,C=C[C@](C)(O)CC[C@@H]1[C@@]2(C)CCCC(C)(C)[C@@H]2CC[C@@]1(C)O,"inconclusive [cytotoxic, partial curve]"
3,Cc1ccc(CCn2c3c(c4cc(Cl)ccc42)CN(C)CC3)cn1,inactive
4,CCCCOCCOCCO,inactive

# Assay: qHTS assay to identify small molecule agonists of the TGF-beta/Smad signaling pathway (AID 1346859; active means well fitted activation curve with a large enough effect in the signal ratio in the repeat runs, not every such curve was filed as active; inconclusive means weak or mixed curves; the % refers to the signal ratio)
# Settings: SBE-bla HEK293T, TGF-beta/Smad beta-lactamase reporter, 5 h; series mostly up to 76.8 µM
# Outline: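 After overnight seeding, SBE-bla HEK 293T cells are dosed with compounds in DMSO and kept 5 hr at 37 C, 5% CO2. LiveBLAzer-type FRET substrate is then applied for 2 hr at room temperature.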
row,SMILES,Potency
1,CC(=O)Nc1ccc(S(=O)(=O)Cl)cc1,inactive
2,CC(C(=O)O)c1ccc(-c2ccccc2)c(F)c1 (stereo not given),"inconclusive [rising, partial curve]"
3,CCc1ccccc1,inactive
4,CCOC(=O)COc1ccc2c(C)c(CCN(CC)CC)c(=O)oc2c1Cl,"inconclusive [rising, partial curve, poor fit]"
5,C/C=C1/C(=O)C[C@H]2[C@@H]3CCC4=CC(=O)CC[C@]4(C)[C@H]3CC[C@]12C,"inconclusive [rising, partial curve]"
6,Cc1ccc(CCn2c3c(c4cc(Cl)ccc42)CN(C)CC3)cn1,inactive
